Target: T1, Cynomolgus monkey CD73 on HEK293-cynoCD73 stable cell line (cynomolgus monkey)
T1 construct: whole, on cells
Assay: flow cytometry on HEK293-cynoCD73 stable cells

Binder | EC50 [nM]
PR000846 (antibody, human IgG1, kappa, PTM-removal variant of PR000506 (heavy chain G55A, G100A)) heavy: QVQLVESGGGVAQPGRSLSLSCAASGFTFSDYGMHWVRQAPGKGLEWVALIWYDASFEYYADSVKGRFSISRDNSKNTLYLQMNSLRAEDTAVYYCVRDAQWGSRLDYWGQGTLVTVSSASTKGPSVFPLAPSSKSTSGGTAALGCLVKDYFPEPVTVSWNSGALTSGVHTFPAVLQSSGLYSLSSVVTVPSSSLGTQTYICNVNHKPSNTKVDKKV[human IgG1 Fc with changes skipped] light: KIVMTQSPATLSLSPGERATLSCRASQSVSRYLAWYQQKPGQAPRLLIYDASNRATGIPARFSGSGSGTDFTLTISSLEPEDFAVYYCQQRSNWIFTFGPGTKVDIKRTVAAPSVFIFPPSDEQLKSGTASVVCLLNNFYPREAKVQWKVDNALQSGNSQESVTEQDSKDSTYSLSSTLTLSKADYEKHKVYACEVTHQGLSSPVTKSFNRGEC | 0.307
PR000850 (antibody, human IgG1, kappa, PTM-removal variant of PR000851 (heavy chain G55A, G100A)) heavy: QVQLVESGGGVAQPGRSLSLSCAASGFTFSDYGMHWVRQAPGKGLEWVALIWYDASFEYYADSVKGRFSISRDNSKNTLYLQMNSLRAEDTAVYYCVRDAQWGSRLDYWGQGTLVTVSSASTKGPSVFPLAPSSKSTSGGTAALGCLVKDYFPEPVTVSWNSGALTSGVHTFPAVLQSSGLYSLSSVVTVPSSSLGTQTYICNVNHKPSNTKVDKKV[human IgG1 Fc with changes skipped] light: EIVLTQSPATLSLSPGERATLSCRASQSVSRYLAWYQQKPGQAPRLLIYDASNRATGIPARFSGSGSGTDFTLTISSLEPEDFAVYYCQQRSNWIFTFGPGTKVDIKRTVAAPSVFIFPPSDEQLKSGTASVVCLLNNFYPREAKVQWKVDNALQSGNSQESVTEQDSKDSTYSLSSTLTLSKADYEKHKVYACEVTHQGLSSPVTKSFNRGEC | 0.347
